Some of the results follow. The full chains were built here from the parent and the listed change. Inactive controls read about 0.05.
B1: TEV protease; numbered along this chain (parent)
chain: MGESLFKGPRDYNPISSSICHLTNESDGHTTSLYGIGFGPFIITNKHLFRRNNGTLVVQSLHGVFKVKDTTTLQQHLVDGRDMIIIRMPKDFPPFPQKLKFREPQREERICLVTTNFQTKSMSSMVSDTSCTFPSGDGIFWKHWIQTKDGQCGSPLVSTRDGFIVGIHSASNFTNTNNYFTSVPKNFMELLTNQEAQQWVSGWRLNADSVLWGGHKVFMVKPEEPFQPVKEATQL

Variants of: B1
Experiment: raw area under fraction-flipped curve 0-4 h after induction (AUC4h, not background-subtracted), DNA-recorder readout of cleavage of the substrate (dimensionless); higher = more cleavage of the substrate by the protease variant
Settings: temperature: 34 °C; time window: 0-4 h after rhamnose induction
Description: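 In vivo DNA recorder in E. coli TOP10(DE3) ΔrhaA at 34 °C. Each TEVp single-site mutant (parent TEVp 0) is paired with a single-site variant of the 7-mer TEVs (canonical ENLYFQ|S). The substrate sits between flexible linkers in a Bxb1-sfGFP-TEVs-SsrA fusion, so cleavage stabilises Bxb1 and speeds flipping of a recombination array, read by NGS. The value is the raw area under the fraction-flipped curve over 0-4 h after rhamnose induction (AUC4h), with ≥20 reads per time point. It is not background-subtracted; inactive controls average about 0.047.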
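Further: Bxb1 expression induced with 0.2% (w/v) L-rhamnose at OD600 near 0.5, cultures sampled hourly, flipped fraction per protease–substrate barcode pair counted by paired-end Illumina sequencing.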

| Variant | area with substrate ENLYAQS | area with substrate ENLYDQS | area with substrate ENLYEQS | area with substrate ENLYGQS | area with substrate ENLYHQS | area with substrate ENLYIQS | area with substrate ENLYKQS | area with substrate ENLYMQS | area with substrate ENLYNQS | area with substrate ENLYPQS | area with substrate ENLYRQS | area with substrate ENLYTQS | area with substrate ENLYVQS | area with substrate ENLYWQS | area with substrate ENLYYQS | area with substrate ENLYCQS | area with substrate ENLYQQS | area with substrate ENLYSQS | area with substrate ENLYLQS |
| --- | --- | --- | --- | --- | --- | --- | --- | --- | --- | --- | --- | --- | --- | --- | --- | --- | --- | --- | --- |
| MGESLFKGPRDYNPISSSICFLTNESDGHTTSLYGIGFGPFIITNKHLFRRNNGTLVVQSLHGVFKVKDTTTLQQHLVDGRDMIIIRMPKDFPPFPQKLKFREPQREERICLVTTNFQTKSMSSMVSDTSCTFPSGDGIFWKHWIQTKDGQCGSPLVSTRDGFIVGIHSASNFTNTNNYFTSVPKNFMELLTNQEAQQWVSGWRLNADSVLWGGHKVFMVKPEEPFQPVKEATQL [H21F] | 0.0667 | 0.059 | 0.107 | 0.07 | 0.0723 | 0.0979 | 0.0482 | 0.0709 | 0.0607 | 0.065 | 0.0645 | 0.0955 | 0.133 | 0.083 | 0.0534 | – | – | – | – |
| MGESLFKGPRDYNPISSSICILTNESDGHTTSLYGIGFGPFIITNKHLFRRNNGTLVVQSLHGVFKVKDTTTLQQHLVDGRDMIIIRMPKDFPPFPQKLKFREPQREERICLVTTNFQTKSMSSMVSDTSCTFPSGDGIFWKHWIQTKDGQCGSPLVSTRDGFIVGIHSASNFTNTNNYFTSVPKNFMELLTNQEAQQWVSGWRLNADSVLWGGHKVFMVKPEEPFQPVKEATQL [H21I] | 0.0643 | 0.0437 | 0.0642 | 0.0564 | 0.0618 | 0.0664 | 0.0383 | 0.0652 | 0.0637 | 0.0638 | 0.0626 | 0.08 | 0.116 | – | 0.0681 | 0.0786 | 0.059 | 0.0701 | – |
| MGESLFKGPRDYNPISSSICTLTNESDGHTTSLYGIGFGPFIITNKHLFRRNNGTLVVQSLHGVFKVKDTTTLQQHLVDGRDMIIIRMPKDFPPFPQKLKFREPQREERICLVTTNFQTKSMSSMVSDTSCTFPSGDGIFWKHWIQTKDGQCGSPLVSTRDGFIVGIHSASNFTNTNNYFTSVPKNFMELLTNQEAQQWVSGWRLNADSVLWGGHKVFMVKPEEPFQPVKEATQL [H21T] | 0.0635 | 0.0656 | 0.0655 | 0.0615 | 0.0632 | 0.104 | 0.0604 | 0.0561 | 0.0669 | 0.068 | 0.0662 | 0.0614 | 0.11 | 0.0683 | 0.0616 | 0.0838 | 0.0535 | 0.0756 | – |
| MGESLFKGPRDYNPISSSICHGTNESDGHTTSLYGIGFGPFIITNKHLFRRNNGTLVVQSLHGVFKVKDTTTLQQHLVDGRDMIIIRMPKDFPPFPQKLKFREPQREERICLVTTNFQTKSMSSMVSDTSCTFPSGDGIFWKHWIQTKDGQCGSPLVSTRDGFIVGIHSASNFTNTNNYFTSVPKNFMELLTNQEAQQWVSGWRLNADSVLWGGHKVFMVKPEEPFQPVKEATQL [L22G] | 0.0518 | 0.0411 | – | 0.0778 | – | – | – | 0.0292 | – | 0.0097 | – | – | 0.0426 | 0.0391 | – | – | – | 0.0379 | 0.0333 |
| MGESLFKGPRDYNPISSSICHLGNESDGHTTSLYGIGFGPFIITNKHLFRRNNGTLVVQSLHGVFKVKDTTTLQQHLVDGRDMIIIRMPKDFPPFPQKLKFREPQREERICLVTTNFQTKSMSSMVSDTSCTFPSGDGIFWKHWIQTKDGQCGSPLVSTRDGFIVGIHSASNFTNTNNYFTSVPKNFMELLTNQEAQQWVSGWRLNADSVLWGGHKVFMVKPEEPFQPVKEATQL [T23G] | 0.0666 | 0.0792 | 0.0606 | 0.0491 | 0.063 | 0.0958 | 0.0436 | 0.0694 | 0.0581 | 0.0564 | 0.0523 | – | 0.0731 | 0.0623 | 0.0584 | – | 0.055 | 0.0621 | 0.063 |
| MGESLFKGPRDYNPISSSICHLWNESDGHTTSLYGIGFGPFIITNKHLFRRNNGTLVVQSLHGVFKVKDTTTLQQHLVDGRDMIIIRMPKDFPPFPQKLKFREPQREERICLVTTNFQTKSMSSMVSDTSCTFPSGDGIFWKHWIQTKDGQCGSPLVSTRDGFIVGIHSASNFTNTNNYFTSVPKNFMELLTNQEAQQWVSGWRLNADSVLWGGHKVFMVKPEEPFQPVKEATQL [T23W] | 0.0537 | 0.0631 | 0.0729 | 0.0594 | 0.0666 | 0.0837 | 0.0681 | 0.0707 | 0.0655 | 0.0683 | 0.0599 | 0.0722 | 0.0994 | 0.0743 | 0.0708 | 0.0033 | 0.0638 | 0.0605 | 0.0714 |
| MGESLFKGPRDYNPISSSICHLTFESDGHTTSLYGIGFGPFIITNKHLFRRNNGTLVVQSLHGVFKVKDTTTLQQHLVDGRDMIIIRMPKDFPPFPQKLKFREPQREERICLVTTNFQTKSMSSMVSDTSCTFPSGDGIFWKHWIQTKDGQCGSPLVSTRDGFIVGIHSASNFTNTNNYFTSVPKNFMELLTNQEAQQWVSGWRLNADSVLWGGHKVFMVKPEEPFQPVKEATQL [N24F] | 0.0577 | 0.068 | 0.0621 | 0.0663 | 0.0699 | 0.109 | 0.0681 | 0.0581 | 0.0607 | 0.0692 | 0.071 | – | 0.0973 | – | 0.0658 | 0.0767 | 0.0772 | 0.0731 | – |
| MGESLFKGPRDYNPISSSICHLTPESDGHTTSLYGIGFGPFIITNKHLFRRNNGTLVVQSLHGVFKVKDTTTLQQHLVDGRDMIIIRMPKDFPPFPQKLKFREPQREERICLVTTNFQTKSMSSMVSDTSCTFPSGDGIFWKHWIQTKDGQCGSPLVSTRDGFIVGIHSASNFTNTNNYFTSVPKNFMELLTNQEAQQWVSGWRLNADSVLWGGHKVFMVKPEEPFQPVKEATQL [N24P] | 0.0583 | 0.0498 | 0.0678 | 0.058 | 0.0564 | 0.0508 | 0.0473 | 0.0359 | 0.0569 | 0.0742 | 0.0468 | – | 0.0785 | 0.0582 | 0.0463 | – | 0.0717 | 0.0535 | 0.0471 |

Reference: the supplement of paper PMC12217912
